Test results: patent US20080161289A1, “Fused Thiazole Derivatives Having Affinity for the Histamine H3 Receptor” (Glaxo Group Limited, priority 2005, published 2008)
The source holds more than one record for some entries. This list holds those alone. There may be further records. Values that stand side by side appear to be repeats on other runs, samples or individuals. Records carry a tag for their origin. A, B and so on number the origins entry by entry.

Biological target: T1, histamine H3 receptors (Homo sapiens, UniProt Q9Y5N1)
T1 construct: expressed in transfected cells; host or cells: CHO K1 cells carrying pSwitch, transfected with pGeneH3, induced with mifepristone; clone 3H3; membrane preparation
Assay: Histamine H3 functional antagonist assay ([35S]-GTPγS SPA on membranes from H3 cells)
Type: biochemical
Conditions: hydrochloride salts tested; H3 functional antagonist assay using membrane prepared from cultured H3 cells; averages of a number of experiments; read-out: functional pKi (fpKi) (converted)
Text: A membrane preparation containing histamine H3 receptors may be prepared in accordance with the following procedures:
(i) Generation of Histamine H3 Cell Line
DNA encoding the human histamine H3 gene (Huvar, A. et al. (1999) Mol. Pharmacol. 55(6), 1101-1107) was cloned into a holding vector, pCDNA3.1 TOPO (InVitrogen) and its cDNA was isolated from this vector by restriction digestion of plasmid DNA with the enzymes BamHI and Not-1 and ligated into the inducible expression vector pGene (InVitrogen) digested with the same enzymes. The GeneSwitch™ system (a system where in transgene expression is switched off in the absence of an inducer and switched on in the presence of an inducer) was performed as described in U.S. Pat. Nos. 5,364,791; 5,874,534; and 5,935,934. […]
10-14 days post selection 10 nM Mifepristone (InVitrogen), was added to the culture medium to induce the expression of the receptor. […] Receptor bound antibody was detected by incubation of the cells for 60 minutes on ice with a goat anti rabbit antibody, conjugated with Alexa 488 fluorescence marker (Molecular Probes). Following two further washes with Sorting Medium, cells were filtered through a 50 μm Filcon™ (BD Biosciences) and then analysed on a FACS Vantage SE Flow Cytometer fitted with an Automatic Cell Deposition Unit. […]

T1 sequence (Q9Y5N1 whole entry): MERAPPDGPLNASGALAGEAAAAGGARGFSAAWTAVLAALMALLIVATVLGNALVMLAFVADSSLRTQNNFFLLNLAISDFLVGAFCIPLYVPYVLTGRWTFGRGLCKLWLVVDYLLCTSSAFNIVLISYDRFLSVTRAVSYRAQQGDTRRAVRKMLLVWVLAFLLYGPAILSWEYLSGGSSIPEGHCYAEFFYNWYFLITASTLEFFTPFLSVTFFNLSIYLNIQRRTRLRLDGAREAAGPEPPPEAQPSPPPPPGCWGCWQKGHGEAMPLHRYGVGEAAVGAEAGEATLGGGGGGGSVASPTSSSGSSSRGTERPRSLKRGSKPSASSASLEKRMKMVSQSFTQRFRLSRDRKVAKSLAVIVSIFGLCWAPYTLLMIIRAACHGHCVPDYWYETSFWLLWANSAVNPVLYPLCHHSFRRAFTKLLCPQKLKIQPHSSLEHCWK

## c1cc(N2CCOCC2)ccc1-c1nc2c(s1)CCN(C1CCC1)CC2 [Example E110, 6-Cyclobutyl-2-[4-(4-morpholinyl)phenyl]-5,6,7,8-tetrahydro-4H-[1,3]thiazolo[4,5-d]azepine]
  Ki: < 1.26 nM [passage A] and > 15.5 nM [passage B]
